Measurements published in PMC4336329 (PLoS ONE, 2015).
The whole screen tested about 310,000 compounds, of which about 14,000 (4.5%) showed an effect of 50% or more. The effect is printed as a negative number. The list shows a part of the results.

target: human ether-à-go-go-related gene (hERG) potassium channel (human, UniProt Q12809); assay: primary screen, population patch clamp on CHO cells stably expressing hERG
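Note: peak tail current of the secondary pulse compared with the same well before compound.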

Sequence of human ether-à-go-go-related gene (hERG) potassium channel (Q12809 whole entry, looked up): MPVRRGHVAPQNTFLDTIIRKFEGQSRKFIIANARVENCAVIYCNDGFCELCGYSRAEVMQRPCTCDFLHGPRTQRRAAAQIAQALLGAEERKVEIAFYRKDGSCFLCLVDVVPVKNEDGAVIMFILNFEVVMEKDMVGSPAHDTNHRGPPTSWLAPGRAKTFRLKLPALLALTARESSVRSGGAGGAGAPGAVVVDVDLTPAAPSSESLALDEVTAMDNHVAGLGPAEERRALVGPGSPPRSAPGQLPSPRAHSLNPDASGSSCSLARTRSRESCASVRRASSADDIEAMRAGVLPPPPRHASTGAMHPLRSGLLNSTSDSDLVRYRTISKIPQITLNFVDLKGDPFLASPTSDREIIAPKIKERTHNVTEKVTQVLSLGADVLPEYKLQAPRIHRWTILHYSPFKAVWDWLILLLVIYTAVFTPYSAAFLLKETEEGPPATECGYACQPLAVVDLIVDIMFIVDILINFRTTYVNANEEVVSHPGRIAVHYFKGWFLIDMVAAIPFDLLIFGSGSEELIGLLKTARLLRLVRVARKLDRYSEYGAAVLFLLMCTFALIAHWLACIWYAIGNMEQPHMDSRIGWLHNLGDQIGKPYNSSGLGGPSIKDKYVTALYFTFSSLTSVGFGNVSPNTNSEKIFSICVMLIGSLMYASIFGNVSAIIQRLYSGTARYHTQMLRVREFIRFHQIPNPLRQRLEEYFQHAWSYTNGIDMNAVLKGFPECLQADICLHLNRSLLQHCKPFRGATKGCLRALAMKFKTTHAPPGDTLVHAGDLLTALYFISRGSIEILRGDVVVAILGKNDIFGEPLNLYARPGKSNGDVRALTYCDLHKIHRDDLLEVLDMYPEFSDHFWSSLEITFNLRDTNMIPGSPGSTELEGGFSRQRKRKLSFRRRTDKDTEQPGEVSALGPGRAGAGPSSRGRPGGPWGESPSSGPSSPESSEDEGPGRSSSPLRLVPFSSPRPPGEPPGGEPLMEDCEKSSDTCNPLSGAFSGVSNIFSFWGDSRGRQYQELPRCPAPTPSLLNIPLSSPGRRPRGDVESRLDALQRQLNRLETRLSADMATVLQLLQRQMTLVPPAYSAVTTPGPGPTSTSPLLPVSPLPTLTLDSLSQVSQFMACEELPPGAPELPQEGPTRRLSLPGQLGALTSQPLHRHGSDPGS

| Compound | hERG current change (%, negative = inhibition) at 10uM [%] |
| --- | --- |
| O=C(Cn1cnc2cc(Cl)ccc2c1=O)Nc1ccc2c(c1)OCO2 | -3.18 |
| CC(C)(C)OC(=O)NNc1c2ccccc2nc2ccccc12 | -27.7 |
| COc1ccc(N2CC(C(=O)Nc3cccc(C)n3)CC2=O)cc1 (stereo not drawn) | 11.9 |
| COc1ccc(-c2cc(=O)oc3cc(OCc4nn[nH]n4)ccc23)cc1 | 11.5 |
| O=[N+]([O-])c1cccc(O)c1 | 19 |
| COc1cccc(OCC(O)CN2CCc3ccccc3C2)c1.Cl (stereo not drawn) | -71.1 |
| CCOC(=O)N1CCN(CCC(=O)Nc2ccc(Br)cc2)CC1 | -33.2 |
| CCCCn1nc(C(=O)N[C@@H](CCSC)c2nc3ccccc3[nH]2)c2ccccc2c1=O | -28.7 |
| Cc1c(N=C/C=C2/N(C)c3ccccc3C2(C)C)c(=O)n(-c2ccccc2)n1C | -38.1 |
| Cc1ccc(C(=O)NCC(c2ccco2)N2CCc3ccccc32)cc1C (stereo not drawn) | -60.1 |
| O=C(CCCn1cnc2ccccc2c1=O)Nc1ccccc1F | -2.21 |
| CC(=O)Nc1ccc(NC(=O)C(C)OC(=O)CSc2ccc(Br)cc2C)cc1 (stereo not drawn) | 19.8 |
| CN(C)CCCNc1nc(-c2ccc(Cl)cc2)nc2ccccc12 | -35.5 |
| CC(CN1CCCCC1)OC(=O)c1ccc(Cl)cc1Cl.Cl (stereo not drawn) | -27.5 |
| COc1ccc(C[C@H]2CN3C(=NC[C@@H]3C(C)C)N2CCNC(=O)CCC2CCCCC2)cc1 | -80.4 |
| CC(=O)N1CCN(CC(=O)Nc2sccc2C#N)CC1 | 17.8 |
| Fc1cccc(CSc2nc3ccncc3[nH]2)c1 | 2.88 |
| CCN(CC)S(=O)(=O)c1ccc(NC(=O)COC(=O)c2cc(S(=O)(=O)Nc3ccc(OC)cc3)ccc2O)cc1 | 19.2 |
| O=C(NCc1cccc(Cl)c1)c1cnn2c1NC(c1ccco1)CC2C(F)(F)F (stereo not drawn) | -27.1 |
| O=C(CN1CCCC1)Nc1ccccc1Sc1ccc(Cl)cc1 | -31.1 |
| O=C(Nc1cc(C(F)(F)F)ccc1N1CCOCC1)c1c(F)c(F)c(F)c(F)c1F | 4.24 |
| Cn1nc(-c2ccccc2)c(-c2nc(-c3cccc(C(F)(F)F)c3)no2)c1Cl | 17.4 |

| Compound | hERG current change (%, negative = inhibition) at 10uM [%] |
| --- | --- |
| COc1cccc(CNCc2ccc3c(c2)OCO3)c1.O=C(O)C(=O)O | 13.7 |
| O=C(O)c1cc(S(=O)(=O)Nc2cc(Cl)ccc2Oc2ccccc2)ccc1O | 22.9 |
| CCn1c(SCC(N)=O)nc2ccccc2c1=O | 9.04 |
| CCOC(=O)C1CCN(C(=O)C2(NC(=O)Nc3ccc(F)cc3F)CCCCC2)CC1 | -4.71 |
| Cc1cnc([N+](=O)[O-])n1CCOC(=O)NC(=O)c1ccccc1 | 7.99 |
| COc1cc(CCC(=O)OCC(=O)Nc2ccc3c(c2)OCO3)cc(OC)c1OC | 4.94 |
| Cn1ncc2nc[nH]c(=O)c21 | 9.16 |
| O=C(NCc1cccnc1)c1cccc(-c2cc3ccccc3oc2=O)c1 | -63.9 |
| CC(Sc1nc2ncc(Cl)cc2[nH]1)C(=O)Nc1ccc(C(N)=O)cc1 (stereo not drawn) | 6.76 |
| Cn1c2c(c(=O)[nH]c1=O)C(NC(=O)c1ccco1)(C(F)(F)F)C(=O)N2 (stereo not drawn) | 5.51 |
| Cc1ccc(NC(=O)/C(C#N)=C/c2ccc(C)s2)c(C)c1 | 13.1 |
| Cc1cc(C)c2c3c(sc2n1)C(c1ccccc1)C(C#N)=C(N)O3 (stereo not drawn) | -9.48 |
| Cn1cc(CNC(=O)C2c3ccccc3Oc3ccccc32)cn1 | 13.5 |
| c1ccc(Oc2cc(-n3cccn3)ncn2)cc1 | -23.3 |
| O=Cc1ccccc1OCc1ccc2c(c1)OCO2 | -7.75 |
| CCN(CC)CCNc1nc2c(c(=O)[nH]c(=O)n2C)n1CCCc1ccccc1 | -46.9 |
| COC(=O)C1=NNC(C(=O)c2ccco2)C1c1ccc(OC)cc1 (stereo not drawn) | 15.1 |
| Clc1ccc(/C=N/c2c(-c3ccc(Cl)cc3)nc3n2CCS3)cc1 | 1.1 |
| C/[N+]([O-])=C\c1ccc([N+](=O)[O-])o1 | -1.36 |
| C=CCn1c(SCC(=O)N2CCc3ccccc3C2)nc2sc(C)cc2c1=O | -7.46 |
| COc1ccc2c(c1)sc(N)[n+]2Cc1cc(C)cc2cccnc12.[Br-] | -74 |
| CN1C[C@@H]2C[C@@H](c3ccc(C#CC(C)(C)O)s3)N3CCC[C@@]23C1=O | 9.88 |

| Compound | hERG current change (%, negative = inhibition) at 10uM [%] |
| --- | --- |
| Cc1cccc(NC(=O)CCNC(=O)c2ccco2)c1 | 38.1 |
| O=C(OC1CCOC1=O)C1CCN(S(=O)(=O)c2ccccc2)CC1 (stereo not drawn) | 3.67 |
| CCOC(=O)CSc1nc(C(C)C)nc2ccccc12 | 1.16 |
| O=C(CN1CCN(S(=O)(=O)c2ccccc2[N+](=O)[O-])CC1)NC(=O)NCc1ccco1 | -5.96 |
| CCOc1ccc(NC(=O)N2CCC(c3nc4ccccc4[nH]3)CC2)cc1 | -0.677 |
| CCOC(=O)c1c(NC(C)=O)no[n+]1[O-] | 5.4 |
| CCCC(=O)Nc1nnc(/C=C/c2ccccc2)s1 | 14.8 |
| Cc1cc(Nc2ccc(C)c(F)c2)n2ncnc2n1 | 3.25 |
| Cc1ccc2nsnc2c1S(=O)(=O)N1CCCC1C(=O)O (stereo not drawn) | 3.79 |
| O=C1CC(c2ccccc2)CC(O)=C1C=NCCN1CCN(C(=S)Nc2cccc(Cl)c2)CC1 (stereo not drawn) | -39.4 |
| CCN(CC(=O)Nc1cccc(S(N)(=O)=O)c1)Cc1nc2ccccc2c(=O)[nH]1 | 3.49 |
| O=C(Nc1ccc2c(c1)OCO2)C1CC(c2c(F)cccc2Cl)=NO1 (stereo not drawn) | -11.4 |
| COc1cc(C(=O)Nc2ccc(NC(=O)c3ccccc3)nc2)cc(OC)c1OC | 9.58 |
| Cc1ccc(S(=O)(=O)NCC(C)n2cncn2)cc1C (stereo not drawn) | 21.1 |
| C[C@H]1C=C(C(=O)N2CCN(Cc3ccc4c(c3)OCO4)CC2)O[C@@H](OCc2ccc(CO)cc2)C1 | -70.7 |
| CCOC(=O)N1CCC(N2C(=O)c3ccc(C(=O)NCc4ccc(F)cc4)cc3C2=O)CC1 | -17.4 |
| CC1CC(=O)Nc2ccccc2N1S(=O)(=O)c1cccc(Cl)c1 (stereo not drawn) | 3.6 |
| N#Cc1nc(COc2cccc(Cl)c2)oc1NCc1ccncc1 | -73.7 |
| O=c1[nH]c(=O)n(-c2cccc3ccccc23)c(O)c1C=NCc1ccc2c(c1)OCO2 | -11.3 |
| Cc1onc(-c2ccccc2)c1C(=O)OCC(=O)NCc1ccc(F)cc1 | 6.47 |
| COc1cc2c(cc1OC)C(Cc1ccc(O)cc1)NCC2 (stereo not drawn) | -8.71 |
| COc1cccc(/C=C2/SC(=O)N(C)C2=O)c1OCc1ccc(C(=O)O)cc1 | 15.6 |

| Compound | hERG current change (%, negative = inhibition) at 10uM [%] |
| --- | --- |
| Cc1nc2scc(C)n2c(=O)c1S(=O)(=O)N1CCN(c2ccc([N+](=O)[O-])cc2)CC1 | -12 |
| CCOC(=O)C1=C(C)NC(=O)NC1c1cn(-c2ccccc2)nc1-c1cccs1 (stereo not drawn) | -6.19 |
| COC(=O)c1ccc(NC(=O)c2ccc(OC(C)=O)c(OC)c2)cc1 | 4.08 |
| Cc1ccc2ccccc2c1COC(=O)c1nonc1N | -7.51 |
| COc1cccc(N2CCN(C(=O)CC(C)(C)CC3=NS(=O)(=O)c4ccccc4N3)CC2)c1 | -6.09 |
| COC(=O)N/N=C\C=C\c1ccc2c(c1)OCO2 | -4.5 |
| CCCc1nc2ccccc2c(C(=O)O)c1CC | 1.82 |
| CNC(=O)C(C)NS(=O)(=O)c1ccc(F)cc1 (stereo not drawn) | 10.9 |
| CN(Cc1ccccc1F)C(=O)c1ccc2c(=O)n3c(nc2c1)CCC3 | 10 |
| O=C(NC1CC1)c1ccc(CS(=O)c2ccc(Br)cc2)o1 (stereo not drawn) | 4.06 |
| COc1cc(/C=C2\S/C(=N/S(=O)(=O)Cc3ccccc3)NC2=O)c([N+](=O)[O-])cc1OC | 7.79 |
| N#CCC(=O)N/N=C/c1cc([N+](=O)[O-])ccc1N1CCOCC1 | -37.3 |
| CCOC(=O)N1CCN(Cc2nc3ccc([N+](=O)[O-])cc3c(=O)n2-c2ccc(OC)cc2OC)CC1 | -46.1 |
| CS(=O)(=O)N1CCN(c2ccccc2NC(=O)c2cccnc2)CC1 | -22.9 |
| CCn1cc(CN2CCCC(C(=O)Nc3ccc(-c4nc5ccccc5[nH]4)cc3)C2)c(C)n1 (stereo not drawn) | -21 |
| CC(=O)N1CCN(S(=O)(=O)c2cccc(C(=O)OCC(=O)N3CC(=O)Nc4ccccc43)c2)CC1 | 20.8 |
| Clc1cccc(Cl)c1-c1noc(CN2CCOCC2)n1 | 11.1 |
| Fc1ccccc1CSc1nc2ccccc2[nH]1 | -11.9 |
| Cc1nn2cc(-c3ccccc3)nc2[nH]c1=O | 27.9 |
| COc1ccc(C2CC(=O)C3=C(C2)Nc2ccccc2N(C(=O)C2CC2)C3c2cccnc2)cc1OC (stereo not drawn) | -13.3 |
| CCSc1ccccc1C(=O)N=C1NC(=O)CC2C(=O)NCCN12 (stereo not drawn) | 20.3 |
